Experimental data from ChEMBL document CHEMBL4888484, “Replenishing the malaria drug discovery pipeline: Screening and hit evaluation of the MMV Hit Generation Library 1 (HGL1) against asexual blood stage Plasmodium falciparum ,using a nano luciferase reporter read-out” (2022).
Screen size: about 150,000 compounds; about 540 (0.36%) showed an effect of 50% or more. The list shows a part of the results.

These molecules were tested on Plasmodium falciparum (assay: Primary screen in NF54 nanoGlo assay, in single point, at 2uM, 72h; a lower Z score goes with more inhibition). Details: timepoint 72 hour.
Assay type: functional, Erythrocyte

Structure (SMILES) | % Inhibition [%] | Z score
O=S(=O)(c1ccc(-c2noc(-c3ccc(F)c(F)c3)n2)cc1)N1CCOCC1 | 5 | -0.84
CCOc1ccc(NC(=O)c2cnn3c2NC(C(=O)O)=C[C@H]3c2cccc(Cl)c2)cc1 | -21 | 1.82
CN1CCN(C2(CNC(=O)Nc3ccccc3C(F)(F)F)CCCC2)CC1 | -2 | 0.33
O=C1CCN(S(=O)(=O)c2ccccc2)CCCN(S(=O)(=O)c2ccc3c(c2)OCCO3)CCN1 | -21 | 2.41
COc1cccc(OC)c1C(=O)Nc1cc2ccccc2cc1NC(=O)c1c(OC)cccc1OC | 5 | -0.9
Cc1cc(COCC(=O)N2CCOCC23CCCCC3)no1 | 3 | -0.67
O=C(C[C@H]1CCS(=O)(=O)C1)NC1(c2noc(C3CCCC3)n2)CCCCCC1 | -4 | 0.54
Fc1ccc(-c2nn(-c3ccccc3)cc2C2Nc3cccc4cccc(c34)N2)cc1 | 1 | -0.13
Fc1ccc(NCC[C@H]2CCCO2)c(OC(F)F)c1 | -13 | 2.26
CC(=O)NC[C@@H]1CN(C(=O)Cc2cc(C)ccc2C)C[C@H]1c1cncn1C | -8 | 1.27
Cc1nsc(C(=O)N2CCN(Cc3ccc4c(c3)OCO4)CC2)n1 | -16 | 2.41
CC(C)[C@H](Cn1cncn1)NC(=O)c1ccc(Cl)s1 | 10 | -1.26
Cc1ccc(C)n1-c1c(C(=O)NCCc2cccs2)sc2ncccc12 | -14 | 1.31
Cc1nn(C)c(C)c1[C@H]1OCC[C@@H]1CNC(=O)c1cccn1C(C)C | 0 | -0.01
CC(C)c1nccn1CC(=O)Nc1ccccc1C(=O)NC1CC1 | -13 | 2.14
COc1ccc(-c2nc(C)c(C(=O)NCCOc3ccccc3)s2)cc1OC | -3 | 0.56
CCOc1cccc(-c2ccc3nc(-c4ccc(C)cc4)c(CN4CCN(S(=O)(=O)c5ccc(OC)cc5)CC4)n3c2)c1 | 15 | -1.62
CCOc1cccc(CNC(=NC)c2cccs2)c1 | 0 | 0.03
COc1cccc(C(=O)Nc2ccc(N3CCN(C(=O)c4cccc(F)c4)CC3)c(C(=O)N3CCCCC3)c2)c1 | -1 | 0.13
O=C(NC[C@H]1O[C@@H](CO)[C@@H](O)[C@H]1N1CCc2ccccc2C1)N1CCOCC1 | 15 | -1.76
CCc1cccc(NC(=O)Cn2c(=O)c(N3CCCCC3)nc3ccccc32)c1 | -7 | 1.19

Structure (SMILES) | % Inhibition [%] | Z score
CCc1noc(CNC(=O)NCCNc2nc(C)cc(=O)[nH]2)n1 | -20 | 1.82
COc1ccc(Nc2nc(-c3ccco3)nc3ccc(C)cc23)cc1 | 13 | -1.61
COCCNC(=O)[C@H]1CCCN(c2nnc3ccc(C(F)(F)F)cn23)C1 | -25 | 4.25
Cc1cn2c(n1)CC[C@H](Nc1ncccc1F)C2 | 0 | 0
O=C(CC[C@H]1CCCOC1)Nc1cc(O)cc(F)c1 | -6 | 0.51
O=C(NC1CCCC1)[C@H]1CCN(c2cnn(CC3CC3)c(=O)c2)C1 | -5 | 0.77
Cc1cccc(CCNC2CCN(c3ccc(-n4nc(C)cc4C)cc3)CC2)n1 | -12 | 1.06
COc1cc(NC(=O)N2CCC[C@H]2CO)cc(-n2cnnn2)c1 | -16 | 2.47
Fc1ccccc1CN(Cc1cccnc1)C[C@H]1CCCN(C2CCCCC2)C1 | -9 | 1.32
NC(=NCC1(c2ccccc2Cl)CC1)N1CCOCC1 | -3 | 0.44
CCC1(O)CCN(C(=O)c2ccc3cc[nH]c3c2)CC1 | -10 | 1.89
CC(C)C[C@H](C)n1nccc1NC(=O)c1ncoc1-c1ccco1 | -10 | 1.63
CC(c1ccccc1)C1CC(=O)N(c2ccc(Cl)cn2)C1=O (configuration not stated) | -4 | 0.62
CC(C)(C)c1nnnn1C[C@H](O)C(F)(F)F | -2 | 0.2
Nc1nc2c(c(C(=O)N(Cc3ccccn3)C[C@@H]3CCC(=O)N3)n1)CCCC2 | 13 | -1.67
C[C@@H](c1nc(C(=O)NCc2ccc(F)cc2)no1)n1ccnc1 | 0 | 0.06
CC(C)[C@H](NC(=O)c1cnn[nH]1)c1ccccn1 | -3 | 0.42
COCC(=O)N1CCC2(CC1)CN(C(=O)OC(C)(C)C)C2 | -1 | 0.21
CN(C)c1ncccc1C(=O)OC1CCCC1 | -15 | 1.38
CCCn1c(=O)sc2cc(NS(=O)(=O)c3ccc(CC)cc3)ccc21 | -3 | 0.43
